Test results: ChEMBL document CHEMBL1201862, “PubChem BioAssay data set” (2004)
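Where inhibition never reached the appropriate level, the endpoint shown equals the highest concentration tested. Otherwise, values were interpolated linearly from a five-concentration, 48-hour dose response in 96-well plates. Abbreviation: GI50, concentration required for 50% inhibition of growth.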 Active and inactive are the calls of the source. Rule as the data show it: active = GI50 up to about 1.1 µM and inactive = higher. Peptide text beside a SMILES is read from it. * marks the point of attachment. Boc = CC(C)(C)OC(=O)*; OtBu = CC(C)(C)O*

What follows are molecules tested on NCI-H322M (assay: DTP human tumour cell line panel, 48 h).

**Q.** How did the GI50 turn out when `O=c1oc2c/c(=C\c3ccccc3)c(=O)c3cccc1c3-2` was run?
**A.** inactive: > 100 µM

**Q.** How did the GI50 turn out when `Cc1ccc(C(=O)C2C=C(c3ccc(C)cc3)SC3C=CCC32)cc1` (stereo not drawn) was run?
**A.** inactive: 27.9 µM

**Q.** With `CC(=O)NC(C)(C)C1CCC(C)=C(c2ccccc2)C1` (stereo not drawn) as the molecule, how does the GI50 read?
**A.** inactive: > 100 µM

**Q.** `COc1ccc(-n2nnc3c(C#N)c(-c4ccccc4)c(C)n3c2=O)cc1` was tested. Which GI50 did it give?
**A.** inactive: 94.8 µM

**Q.** How did the GI50 turn out when `CCCCCC(C)(C)CCC(=O)OC1OC(COC2OC(COC3OC(CO)C(O)C(O)C3O)C(O)C(O)C2O)C(O)C(O)C1O` (stereo not drawn) was run?
**A.** inactive: > 100 µM

**Q.** Which GI50 does the source give for `CCn1c2c(c3ccccc31)C(c1ccccc1)CC1C(=O)N(c3ccccc3)C(=O)C21` (stereo not drawn) here?
**A.** inactive: > 100 µM

**Q.** How did the GI50 turn out when `Oc1ccc(-c2nc3ccc(Br)cc3s2)cc1` was run?
**A.** inactive: 18.7 µM

**Q.** For `NC1=C(NC(=O)Cc2ccc(F)cc2)C(=O)c2ccccc2C1=O`, which GI50 is on record?
**A.** inactive: > 100 µM

**Q.** Which GI50 does the source give for `COc1cc(C(=O)C/C(CCCC(=O)Nc2ccccc2[N+](=O)[O-])=N/NC(=O)c2cc3ccccc3cc2O)ccc1O` here?
**A.** inactive: 24 µM

**Q.** Which GI50 does the source give for `O=C(O)C1C2CC3C(OC(=O)C31)C2Br` (stereo not drawn) here?
**A.** inactive: > 100 µM

**Q.** Which GI50 does the source give for `Nn1c(S)nnc1-c1ccccc1Nc1ccccc1-c1nnc(S)n1N` here?
**A.** inactive: > 50 µM

**Q.** Which GI50 does the source give for `CC(=C(C(N)=O)C(N)=O)C1C=C(c2cccs2)CC(c2ccc(Cl)cc2)=C1O` (stereo not drawn) here?
**A.** inactive: > 100 µM

**Q.** With `C[C@H](CCC(=O)O)[C@H]1CC[C@H]2[C@@H]3[C@@H](O)C[C@@H]4C[C@H](O)CC[C@]4(C)[C@H]3C[C@H](O)[C@]12C` as the molecule, how does the GI50 read?
**A.** inactive: > 100 µM

**Q.** For `Cc1nc(=O)n2c(C)n[nH]c2c1C(=O)Nc1cc(Cl)cc(Cl)c1`, which GI50 is on record?
**A.** inactive: > 100 µM

**Q.** Which GI50 does the source give for `Cc1nc2ccc(Cl)cc2c2c1CCS2` here?
**A.** inactive: > 100 µM

**Q.** For `NC(=O)C12C3C4C1C1C2C3C41C(N)=O` (stereo not drawn), which GI50 is on record?
**A.** inactive: > 100 µM

**Q.** How did the GI50 turn out when `O=C1C2C(C(=O)N1c1ccccc1)C1(c3ccccc3)CCC2(C(=O)c2ccccc2)O1` (stereo not drawn) was run?
**A.** inactive: > 10 µM

**Q.** How did the GI50 turn out when `Cc1nc(-n2nc(-c3ccccc3)cc2-c2ccccc2)sc1C(=O)/C=C/c1cccc([N+](=O)[O-])c1` was run?
**A.** inactive: 21.6 µM

**Q.** For `CC(C)(C)OC(=O)CC(NC(=O)OC(C)(C)C)C(=O)NC(Cc1ccccc1)C(N)=O` (stereo not drawn) (Boc-Asp(OtBu)-Phe-NH2; configuration not given here), which GI50 is on record?
**A.** inactive: > 100 µM

**Q.** For `C(/Cc1ccc2c(c1)OCO2)=N\N=C1NCCCCN1`, which GI50 is on record?
**A.** inactive: > 100 µM

**Q.** `CC(=O)Nc1ccc2c3c(cc(O)c2c1)N(C(=O)CCCCCCC(=O)N1CC(CCl)c2c1cc(O)c1cc(NC(C)=O)ccc21)CC3CCl` (stereo not drawn) was tested. Which GI50 did it give?
**A.** active: 0.0396 µM

**Q.** For `Cc1ccc2c(n1)C(=O)C=CC2=O`, which GI50 is on record?
**A.** inactive: 16 µM

**Q.** `Cc1ccc(S(=O)(=O)Nn2c(S)c(C#N)c(-c3ccc(N(C)C)cc3)c(C#N)c2=O)cc1` was tested. Which GI50 did it give?
**A.** inactive: 55 µM

**Q.** Which GI50 does the source give for `CC(=O)OC1CCC2(C)C(CCC3C2CC(=O)C2(C)C3CC(N3CC3)C2C(C)=O)C1` (stereo not drawn) here?
**A.** inactive: 20.4 µM

**Q.** With `NCC(O)CNC(=O)c1ccc(-c2ccc(-c3ccc(C(=O)NCC(O)CN)cc3)o2)cc1` (stereo not drawn) as the molecule, how does the GI50 read?
**A.** inactive: 20.8 µM

**Q.** Which GI50 does the source give for `CC12CCC3(C1)[C@H](CC2=O)C[C@@H](OC(=O)c1ccccc1)C1C(C)(CO)CCC[C@@]13C` (stereo partly drawn) here?
**A.** inactive: 5.53 µM

**Q.** `C=CCC(C(=O)Nc1cccc2nc[nH]c12)C(=O)OCC` (stereo not drawn) was tested. Which GI50 did it give?
**A.** inactive: > 100 µM

**Q.** For `O=C1CCc2cc3c(cc21)C(C(=O)O)CC3` (stereo not drawn), which GI50 is on record?
**A.** inactive: > 100 µM

**Q.** Which GI50 does the source give for `Cc1n[nH]c(N)c1C(N)=O` here?
**A.** inactive: > 100 µM

**Q.** `Cc1ccc(C2SCc3nc4ccccc4n32)cc1` (stereo not drawn) was tested. Which GI50 did it give?
**A.** inactive: 5.19 µM

**Q.** For `O=C(Nc1nc2ncn(CCNCCn3cnc4nc(NC(=O)c5ccccc5)[nH]c(=O)c43)c2c(=O)[nH]1)c1ccccc1`, which GI50 is on record?
**A.** inactive: > 100 µM

**Q.** How did the GI50 turn out when `Cn1cc(-c2n[nH]c(-c3ccc(Cl)cc3)nc2=O)c2ccccc21` was run?
**A.** inactive: 2.12 µM

**Q.** How did the GI50 turn out when `C/C(=N\NC(=S)N1CCN(c2ccccn2)CC1)c1cccc2cccnc12` was run?
**A.** inactive: 3.3 µM

**Q.** How did the GI50 turn out when `COC1(OC)CC2C(=O)N(Cc3ccccc3)C1C(S(=O)(=O)c1ccccc1)C2S(=O)(=O)c1ccccc1` (stereo not drawn) was run?
**A.** inactive: 87.1 µM

**Q.** With `CC1CC(N2CCOCC2)=Nc2ccccc2N1C` (stereo not drawn) as the molecule, how does the GI50 read?
**A.** inactive: > 100 µM

**Q.** `CCOCc1cc(=O)c2c(OC)cc3c(c2o1)CCC(C)(C)O3` was tested. Which GI50 did it give?
**A.** inactive: > 100 µM

**Q.** How did the GI50 turn out when `CC(=O)OCCOCn1cnc2c(Cl)nc(Cl)nc21` was run?
**A.** inactive: 25.2 µM

**Q.** Which GI50 does the source give for `COC(=O)c1c(O)ccc2c1c1c(n2CCc2ccc(OC)c(OC)c2)C(=O)c2ccccc2C1=O` here?
**A.** inactive: 15.5 µM

**Q.** With `O=C1N=C2SC(=S)N=C(S)N2NC12c1ccccc1-c1ccccc12` as the molecule, how does the GI50 read?
**A.** inactive: > 10 µM

**Q.** For `O=C(O)c1cc(=O)c2cc(C(=O)c3cccs3)c(Cl)c(Cl)c2o1`, which GI50 is on record?
**A.** inactive: > 100 µM

**Q.** For `O=C1/C(=C\c2cccc(Oc3ccccc3)c2)S(=O)(=O)C(c2ccccc2)N1Cc1ccccc1` (stereo not drawn), which GI50 is on record?
**A.** inactive: 66.2 µM

**Q.** For `O=C(O)c1nc2cc(C(F)(F)F)ccc2[nH]c1=O`, which GI50 is on record?
**A.** inactive: > 100 µM

**Q.** `Cc1cnc2c(c1)C(=O)C1=C(OC(C)(C)CC1O)C2=O` (stereo not drawn) was tested. Which GI50 did it give?
**A.** inactive: 15.1 µM

**Q.** Which GI50 does the source give for `C=CCN1C(=O)/C(=C/c2ccccc2)N=C1SC1OC(COC(=O)c2ccccc2)C(OC(=O)c2ccccc2)C1OC(=O)c1ccccc1` (stereo not drawn) here?
**A.** inactive: > 100 µM

**Q.** For `CC(=O)OCC(=O)[C@@]12OC(C)(C)O[C@@H]1C[C@H]1[C@@H]3CC(C=O)=C4C=C(OCCCl)CC[C@]4(C)[C@@]3(F)[C@@H](O)C[C@@]12C` [FORMOCORTAL], which GI50 is on record?
**A.** inactive: 21 µM

**Q.** For `O=C1O[C@@H](c2ccccc2)C[C@@H]1CN1CCOCC1`, which GI50 is on record?
**A.** inactive: > 100 µM

**Q.** Which GI50 does the source give for `CS(=O)(=O)c1nc(N)nc2nc[nH]c12` here?
**A.** inactive: > 100 µM

**Q.** `CC(C)(C)OC(=O)NCC(c1c[nH]c2ccccc12)c1c[nH]c2ccccc12` was tested. Which GI50 did it give?
**A.** inactive: 16.5 µM

**Q.** How did the GI50 turn out when `OC1(c2ccccc2)c2ccccc2N=C2NCCN21` (stereo not drawn) was run?
**A.** inactive: > 100 µM

**Q.** Which GI50 does the source give for `O=C1NC2C(O)CCCCC2C12CCCCC2` (stereo not drawn) here?
**A.** inactive: > 100 µM

**Q.** `Clc1ccc(C(Cc2ccccc2)c2c(Cl)nc(N3CCNCC3)nc2Cl)cc1` (stereo not drawn) was tested. Which GI50 did it give?
**A.** inactive: 19.7 µM

**Q.** `CCOC(=O)C1(C(=O)OCC)CN(CC)CN(c2ccccc2)C1` was tested. Which GI50 did it give?
**A.** inactive: > 100 µM

**Q.** `CC(=O)C1=CC=C/C1=N\Nc1ccccc1` was tested. Which GI50 did it give?
**A.** inactive: 10.6 µM

**Q.** `CC(=O)NC1=C(NCCO)C(=O)c2ccccc2C1=O` was tested. Which GI50 did it give?
**A.** inactive: > 50 µM

**Q.** `CC(=O)Nc1ccc2c(c1)/C(=N/c1ccc(C(=O)O)cc1)c1ccccc1-2` was tested. Which GI50 did it give?
**A.** inactive: 69.8 µM

**Q.** Which GI50 does the source give for `Cc1ccc(NC(=O)/C(=N/NC(=O)C[N+](C)(C)C)c2nc3ccccc3nc2O)cc1` here?
**A.** inactive: > 100 µM

**Q.** Which GI50 does the source give for `NC1=NC(c2ccc(Cl)cc2)N(c2ccc(S(=O)(=O)Nc3ncccn3)cc2)C(N)=N1` (stereo not drawn) here?
**A.** inactive: > 100 µM

**Q.** Which GI50 does the source give for `COC(=O)c1ccc2c(O)c(O)ccc2c1` here?
**A.** inactive: 17.2 µM

**Q.** For `Cc1c(/C=N/NC(=S)N2CCCCC2)c(=O)n(-c2ccccc2)n1C`, which GI50 is on record?
**A.** inactive: > 100 µM

**Q.** How did the GI50 turn out when `COC1CC(OC2CCC3(C)C(=CCC4C3C(OC(C)=O)C(OC(=O)CC(C)C)C3(C)C(C(C)=O)CCC43O)C2)OC(C)C1OC1CC(OC)C(OC2CC(OC)C(OC3OC(C)C(OC4OC(CO)C(O)C(O)C4O)C(OC)C3O)C(C)O2)C(C)O1` (stereo not drawn) was run?
**A.** inactive: > 75 µM

**Q.** How did the GI50 turn out when `NN/C(=N\S(=O)(=O)c1cccc2nsnc12)Nc1ccc(Cl)cc1` was run?
**A.** inactive: > 100 µM

**Q.** For `Cc1cccc2c1Sc1ccccc1C2NC(=O)CN(C)C` (stereo not drawn), which GI50 is on record?
**A.** inactive: > 100 µM

**Q.** With `Cn1c(C2CC(C)(C)c3c2c2ccccc2n3C)cc2ccccc21` (stereo not drawn) as the molecule, how does the GI50 read?
**A.** inactive: > 304 µM
